Inconclusive results are not listed. Calls come from the whole dose curve; as a rule, active = well fitted cell-killing curve with a large enough effect; inconclusive = small, poorly fitted or top-dose-only effect; inactive = no such curve, though single readings can be large or run the other way. The source holds several records for some structures; these can differ, active in one and inactive in another. A number of entries come with more than one value. This is not the full list of results. There may be further records. Values given together are repeated measurements in other runs, samples, wells, individuals or studies. A tag in brackets gives the origin of a value. Letters count within one entry.
Potency is the fitted concentration of half-maximal effect.

The nature of this test: qHTS of pediatric cancer cell lines to identify multiple opportunities for drug repurposing: Primary screen for NB1643 cells (AID 1347099). Note: nearly all actives have a fitted effect of over 50% in size. The following applies: NB1643 neuroblastoma viability, CellTiter-Glo luminescence, 48 h; series mostly up to 46 µM.
For the molecule `O=C(NCC1CCCCN1)c1cc(OCC(F)(F)F)ccc1OCC(F)(F)F` (centres undefined), the Potency result is “active: 16.6 µM [sample A] and inactive [sample B]”.

With `COC(=O)C1=C(C)NC(C)=C(C(=O)OC(C)C)C1c1cccc2nonc12` (centres undefined), the Potency entry is “active: 9.35 µM [sample A] and inactive [sample B]”.

Regarding `CN(c1nccc(=O)[nH]1)C1CCN(c2nc3ccccc3n2Cc2ccc(F)cc2)CC1`, the Potency entry is “active: 4.18 µM [sample A] and inactive [sample B]”.

Regarding `Cc1c(C(=O)NN2CCCCC2)nn(-c2ccc(Cl)cc2Cl)c1-c1ccc(Cl)cc1`, the Potency result is “active: 18.7 µM [sample A] and inactive [sample B]”.

`O=C(NCCO[N+](=O)[O-])c1cccnc1`: the Potency result was “active: 14.8 µM [sample A] and inactive [sample B]”.

For `CC1(C)CCC(C)(C)c2cc(NC(=O)c3ccc(C(=O)O)cc3)ccc21`, the Potency result is “active: 11.8 µM [sample A] and inactive [sample B]”.

In the case of `Clc1ccc(C(Cn2ccnc2)OCc2ccc(Sc3ccccc3)cc2)c(Cl)c1` (centres undefined), the Potency result was “inactive [sample A] and active: 16.6 µM [sample B]”.

For the molecule `Cc1cc2cc3c(C)cc(=O)oc3c(C)c2o1`, the Potency result was “inactive [sample A] and active: 10.5 µM [sample B]”.

As to `Cc1ccc(C)c(OCCCC(C)(C)C(=O)O)c1`, the Potency entry is “inactive [sample A] and active: 13.2 µM [sample B]”.

Source of the values: PubChem BioAssay (NCATS).
